Data from PMC8052441, “Structural insight into the molecular mechanism of p53-mediated mitochondrial apoptosis” (Nature Communications, 2021).

Molecular target: T1, p53-DT (human p53 DBD and tetramerization domain, amino acids 92-360) (human, UniProt P04637 92-360)
T1 construct: human p53, DBD and tetramerization domain, amino acids 92-360; Tetramer in solution by gel filtration and cross-linking; also called wild-type p53-DT; not shown: His6, N-terminal, cleaved
Assay: ITC; p53 protein (100 µM) titrated into 10–30 µM BCL-xL or BCL-2; 25 °C; 50 mM Tris pH 7.0, 40 mM NaCl, 1 mM TCEP
Conditions: both partners purified

B1: BCL-2 (human, […]) (domain or fragment)
chain: not shown
notes: human BCL-2, […]; Cloned into pET-28a
Kd: 3.3 µM
